Data taken from PMC4336329 (PLoS ONE, 2015).
Screen size: about 310,000 compounds; about 14,000 (4.5%) showed an effect of 50% or more. The effect is printed as a negative number. Some of the results follow.

Target: human ether-à-go-go-related gene (hERG) potassium channel (human, UniProt Q12809)
Experiment: primary screen, population patch clamp on CHO cells stably expressing hERG
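Also: peak tail current of the secondary pulse compared with the same well before compound.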

Sequence of human ether-à-go-go-related gene (hERG) potassium channel (Q12809 whole entry, looked up): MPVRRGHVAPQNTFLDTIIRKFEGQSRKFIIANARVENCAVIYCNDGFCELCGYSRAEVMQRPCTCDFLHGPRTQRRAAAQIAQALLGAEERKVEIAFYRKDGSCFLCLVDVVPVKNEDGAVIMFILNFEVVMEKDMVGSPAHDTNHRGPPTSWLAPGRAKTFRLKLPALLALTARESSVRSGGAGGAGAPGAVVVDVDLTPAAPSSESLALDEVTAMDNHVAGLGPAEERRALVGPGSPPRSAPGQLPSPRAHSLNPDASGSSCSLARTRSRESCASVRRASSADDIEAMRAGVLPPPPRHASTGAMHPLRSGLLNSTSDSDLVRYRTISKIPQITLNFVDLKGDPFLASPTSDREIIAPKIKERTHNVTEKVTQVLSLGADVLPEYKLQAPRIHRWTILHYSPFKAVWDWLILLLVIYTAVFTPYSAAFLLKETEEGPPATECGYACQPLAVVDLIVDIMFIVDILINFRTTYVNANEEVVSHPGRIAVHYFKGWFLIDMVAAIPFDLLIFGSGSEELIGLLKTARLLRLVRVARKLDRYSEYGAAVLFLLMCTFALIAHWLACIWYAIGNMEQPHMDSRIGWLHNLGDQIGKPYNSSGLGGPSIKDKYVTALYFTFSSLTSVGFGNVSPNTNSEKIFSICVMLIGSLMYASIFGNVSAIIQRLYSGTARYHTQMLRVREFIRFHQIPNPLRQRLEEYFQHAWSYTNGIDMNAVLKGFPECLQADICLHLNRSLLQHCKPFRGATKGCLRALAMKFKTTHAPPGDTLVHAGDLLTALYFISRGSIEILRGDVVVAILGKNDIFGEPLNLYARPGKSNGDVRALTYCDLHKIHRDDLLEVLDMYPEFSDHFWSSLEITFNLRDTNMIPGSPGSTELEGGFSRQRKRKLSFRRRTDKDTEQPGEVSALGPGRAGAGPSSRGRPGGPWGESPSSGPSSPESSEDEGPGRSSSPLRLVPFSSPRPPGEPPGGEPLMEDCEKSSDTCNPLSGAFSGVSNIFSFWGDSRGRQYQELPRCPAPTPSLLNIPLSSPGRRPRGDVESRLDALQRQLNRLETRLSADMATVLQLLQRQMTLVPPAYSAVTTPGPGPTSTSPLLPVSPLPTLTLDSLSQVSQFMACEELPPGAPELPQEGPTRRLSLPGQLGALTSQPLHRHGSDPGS

| SMILES | hERG current change (%, negative = inhibition) at 10uM [%] |
| --- | --- |
| Cc1ccc(OCc2nnc(-c3ccc(Cl)cc3)o2)cc1 | 3.86 |
| COc1ccc(/C=N/NC(=O)COc2cccc3cccnc23)cc1OC | 2.38 |
| COc1ccc(S(=O)(=O)Nc2ccccc2-c2nnn(CC(=O)Nc3ccccc3OC)n2)cc1 | 5.49 |
| CC1Cc2cc(/C(O)=C3/C(=O)C(=O)N(Cc4cccnc4)C3c3cccc(O)c3)ccc2O1 (centres unmarked) | 19.2 |
| Cc1ccc2cc(C)c(N3CCN(c4ccc(F)cc4)CC3)nc2c1 | 9.96 |
| COc1ccc(CCNC(=O)CCSc2nc(-c3ccco3)cc(C(F)(F)F)n2)cc1OC | -6.21 |
| Cc1ccccc1C(=O)OC(C)CN1CCOCC1.Cl (centres unmarked) | -28.8 |
| CCc1nnc(NC(=O)CSc2nnc(-c3ccccc3OC)n2-c2ccccc2)s1 | 2.59 |
| CC(CCc1ccccc1)NC(=O)COC(=O)c1cccn1C (centres unmarked) | -5.24 |
| O=C(CCNS(=O)(=O)c1ccc(Br)s1)NCc1ccc(F)cc1 | -8.51 |
| CCOC(=O)c1ccccc1NC(=S)N1CCCCC1 | -20.2 |
| CCCC(=O)Nc1ccc(NC(=O)c2cccs2)cn1 | -0.0941 |
| O=C(N/N=C/c1ccccn1)NC12CC3CC(CC(C3)C1)C2 | -3.1 |
| CC(C)c1ccc(S(=O)(=O)N2CCN(C(=O)CN3C(=O)NC(C)(c4ccccc4)C3=O)CC2)cc1 (centres unmarked) | -31.6 |
| N#Cc1cc([N+](=O)[O-])ccc1N1CCN(c2ccccc2O)CC1 | -35 |
| O=C1NC(=Nc2ccccc2)S/C1=C\c1ccccc1 | 10.2 |
| CCn1cc(C(=O)N[C@@H](C)C(=O)NCCCn2ccnc2)c(=O)c2cc3c(cc21)OCO3 | 6.29 |
| CCCCn1c(N)c(N(CCOC)C(=O)C2CC(=O)N(c3ccc(CC)cc3)C2)c(=O)[nH]c1=O (centres unmarked) | -4.12 |
| Cc1ccccc1-c1nc(CS(=O)CC(=O)NC(C)CCc2ccccc2)c(C)o1 (centres unmarked) | -6.61 |
| COc1ccc(-c2cc(C(F)(F)F)n3nc(C(=O)N4CCCCC4)cc3n2)cc1OC | 6.62 |
| Cc1cc(C)n2nc(CNS(=O)(=O)c3ccc(CC(C)C)cc3)nc2n1 | -47.1 |
| COc1ccc(-c2noc(-c3cc4ccccc4oc3=O)n2)cc1 | 8.56 |
| Cc1nnc(N2C(=O)C(O)=C(C(=O)c3ccco3)C2c2cccc([N+](=O)[O-])c2)s1 (centres unmarked) | 7.75 |
